Laboratory results from PMC4336329 (PLoS ONE, 2015).
The whole screen tested about 310,000 compounds, of which about 2,200 (0.71%) showed an effect of 50% or more. The effect is printed as a negative number. The list shows a part of the results.

Target: human ether-à-go-go-related gene (hERG) potassium channel (human, UniProt Q12809)
Test: primary screen, population patch clamp on CHO cells stably expressing hERG

Chain of human ether-à-go-go-related gene (hERG) potassium channel (Q12809 whole entry, looked up): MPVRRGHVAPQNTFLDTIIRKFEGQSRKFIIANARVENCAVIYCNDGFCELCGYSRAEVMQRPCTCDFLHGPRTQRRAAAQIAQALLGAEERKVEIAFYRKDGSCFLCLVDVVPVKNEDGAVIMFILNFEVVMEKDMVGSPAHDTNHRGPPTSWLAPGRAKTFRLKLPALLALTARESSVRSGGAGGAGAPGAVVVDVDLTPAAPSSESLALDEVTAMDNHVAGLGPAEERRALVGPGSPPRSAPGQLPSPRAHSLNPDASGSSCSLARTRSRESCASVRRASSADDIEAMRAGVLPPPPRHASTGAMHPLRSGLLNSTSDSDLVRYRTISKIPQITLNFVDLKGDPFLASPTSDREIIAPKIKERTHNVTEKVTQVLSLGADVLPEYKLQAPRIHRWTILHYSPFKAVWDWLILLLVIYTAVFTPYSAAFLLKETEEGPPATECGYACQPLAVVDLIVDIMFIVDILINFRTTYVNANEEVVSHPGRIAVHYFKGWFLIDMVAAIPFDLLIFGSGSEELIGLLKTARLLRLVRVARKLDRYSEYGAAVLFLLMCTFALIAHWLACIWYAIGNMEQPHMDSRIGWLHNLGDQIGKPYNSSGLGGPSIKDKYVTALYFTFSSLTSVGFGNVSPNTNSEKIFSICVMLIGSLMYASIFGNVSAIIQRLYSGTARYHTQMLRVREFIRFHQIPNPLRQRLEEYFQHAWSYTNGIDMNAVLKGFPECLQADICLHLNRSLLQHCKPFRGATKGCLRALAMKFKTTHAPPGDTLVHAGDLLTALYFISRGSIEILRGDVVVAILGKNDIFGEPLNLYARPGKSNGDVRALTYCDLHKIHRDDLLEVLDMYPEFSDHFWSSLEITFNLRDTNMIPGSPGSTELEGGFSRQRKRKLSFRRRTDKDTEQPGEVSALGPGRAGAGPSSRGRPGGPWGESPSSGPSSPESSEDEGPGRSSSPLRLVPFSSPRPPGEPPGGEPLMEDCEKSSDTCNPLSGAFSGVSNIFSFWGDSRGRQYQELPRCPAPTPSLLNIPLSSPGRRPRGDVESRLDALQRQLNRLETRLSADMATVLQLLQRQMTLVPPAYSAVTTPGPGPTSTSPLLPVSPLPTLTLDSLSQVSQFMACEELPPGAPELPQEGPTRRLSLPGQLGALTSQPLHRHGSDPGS

Row | SMILES | hERG current change (%, negative = inhibition) at 1uM
1 | COc1cc2c3c([nH]c2cc1F)C(=O)NCC3 | 12.6%
2 | O=C(CN1CCN(c2ccccc2F)CC1)c1c[nH]c2ccc(F)cc12 | -9.17%
3 | O=C(COC(=O)c1ccccc1-n1cnnn1)c1ccccc1 | 5.7%
4 | O=C(NCC1CCCO1)c1ccc(NC(=O)c2ccc(Br)cc2)cc1 (stereo not shown) | 15%
5 | CCN(CC)C(=O)CN(c1cc2c(cc1OC)oc1ccccc12)S(=O)(=O)c1ccccc1 | 5.49%
6 | CCSCc1nnc(SCC(=O)Nc2nccs2)n1CC | 7.03%
7 | O=C(CCl)N(c1ccccc1)c1c[nH]c2ccccc12 | 9.71%
8 | CSCC[C@H](NC(=O)C1=NN(c2c(F)c(F)cc(F)c2F)C(=O)CC1)c1nc2ccccc2[nH]1 | -6.71%
9 | CC1(C)Cc2c(sc3nc(-c4ccccc4Cl)n(N)c(=O)c23)CO1 | 10%
10 | Cc1nc2ccccc2n1C(=O)N1CCOCC1 | 10.3%
11 | Cc1cc(Nc2cc(Cl)cc(Cl)c2)nc(N)n1 | 1.78%
12 | CC(C)(C)c1ccc(C(=O)N/N=C/c2ccc(OCCCF)cc2)cc1 | 7.1%
13 | NS(=O)(=O)c1ccc(NC(NC(=O)c2cccnc2)C(Cl)(Cl)Cl)cc1 (stereo not shown) | 8.45%
14 | CCOC(=O)c1cc(-c2ccc(OC)cc2)n[nH]1 | 11.4%
15 | CSc1ccccc1NC(=O)c1cc2c(=O)n3ccccc3nc2s1 | 2.55%
16 | Cn1c(=O)n(C)c2cc(/C=N/n3cnnc3)ccc21 | 7.06%
17 | Cc1cc(OCC(=O)Nc2ccccc2N2CCCCC2)ccc1C(C)C | 10%
18 | CCCc1cc(=O)oc2c(C)c(OCC(=O)Nc3ccccn3)ccc12 | 6.71%
19 | Cc1ccc(S(=O)(=O)N2CCC(C(=O)NCCCN3CCCC3=O)CC2)cc1C | 5.98%
20 | CCCOc1cc(NCc2ccccc2)c2ncn(C(C)C)c2c1 | 6.72%
21 | COc1ccccc1OCC#CCN1CCCCCC1.O=C(O)C(=O)O | 10.8%
22 | Cc1ncc(CO)c(/C=N/N=C/c2ccccc2O)c1O | 11.4%
23 | CCOc1ccc(NC(=O)CN2C(=O)CSC(C)C2=O)cc1 (stereo not shown) | 16.1%

Row | SMILES | hERG current change (%, negative = inhibition) at 1uM
24 | Cl.Clc1ccccc1CN1CCNCC1 | 15.1%
25 | c1ccc(C2(c3ccccc3)OCC(Cn3cncn3)O2)cc1 (stereo not shown) | 4.74%
26 | O=C(NCCc1ccccc1)c1ccc(Br)o1 | -0.034%
27 | C/C(=N\NC(=O)C1COc2ccccc2O1)c1ccc(N2CCOCC2)cc1 (stereo not shown) | 6.29%
28 | O=C(O)C(=O)O.O=[N+]([O-])c1cccc(CN2CCN(Cc3ccc(Cl)cc3)CC2)c1 | -27.2%
29 | CCN(CC(=O)NC1CCS(=O)(=O)C1)Cc1nc2c(Br)cc(Br)cc2c(=O)[nH]1 (stereo not shown) | 15.4%
30 | Cc1c(=O)n(OCc2ccc(Cl)cc2)c2ccccc2[n+]1[O-] | 21.9%
31 | CCc1c(C)sc(NC(=S)Nc2cccnc2)c1C(=O)OC | 6.46%
32 | CCOC(=O)c1cc2nc(Nc3ccc(OC)cc3)sc2s1 | 1.31%
33 | CSc1cccc(NC(=O)COC(=O)c2ccccn2)c1 | -4.49%
34 | Cc1ccc(C)c(NC(=O)CN(C)C(=O)[C@@H](NC(N)=O)C(C)C)c1 | 10.1%
35 | Cc1ccc(NC(=O)c2cnccn2)c(Br)c1 | 14.7%
36 | CCn1c(CCNC(=O)c2ccco2)nc2ccccc21 | 11.3%
37 | COC(c1ccccc1)c1c(-c2ccccc2)nn(C)c1Cl (stereo not shown) | 7.94%
38 | COCCNC(=O)C(c1cccs1)N(C(=O)Cn1nnc2ccccc21)c1ccc(OC)cc1 (stereo not shown) | 13.6%
39 | CC(C)C(=O)Nc1cccc(C(=O)Nc2nncs2)c1 | 6.79%
40 | CCCN1CCC(=O)N([C@H](CO)CC(C)C)CC1 | 20.4%
41 | COC(=O)COc1cc(OCC(=O)OC)c2c(C)c(Cl)c(=O)oc2c1 | 13.2%
42 | CCCNC(=O)N1[C@H]2CC[C@@H]1C(C(=O)OC)=C(c1ccc(OC(F)(F)F)cc1)C2 | -0.757%
43 | CC(NS(=O)(=O)c1ccc(Br)cc1)c1ccccc1 (stereo not shown) | 12.3%
44 | CC(C)c1[nH]c(=O)c(C#N)c2c1CSC(C)(C)C2 | 6.8%
45 | Cc1cccc(C(=O)Nc2nnc(COc3ccccc3)s2)c1 | 9.7%
46 | CC(=O)N(Cc1ccco1)c1nc(C(=O)Nc2ccc(Cl)cc2)c(C)s1 | 7.14%
